Settings in all cases: 20 mM HEPES pH 7.9, 100 mM NaCl, 1 mM DTT, 0.2 mg/mL BSA, 0.02% Triton X-100, 2% milk, 0.4 mg/mL salmon testes DNA; 1 h; temperature not stated; high values mean tight binding; double strand, one strand shown; sequences stand for … in GCCTAGCAC…GTGCTAGGTCTTGATTCGCTTGACGCTGCTG
Assay [1] concerns the target PU.1 (IVT) (UniProt P17947). The assay can be described thus: protein-binding microarray (PBM).
For assay [2], the target named is T1, FLI1 (endogenous, THP-1 nuclear extract) (UniProt Q01543).
T1 sequence: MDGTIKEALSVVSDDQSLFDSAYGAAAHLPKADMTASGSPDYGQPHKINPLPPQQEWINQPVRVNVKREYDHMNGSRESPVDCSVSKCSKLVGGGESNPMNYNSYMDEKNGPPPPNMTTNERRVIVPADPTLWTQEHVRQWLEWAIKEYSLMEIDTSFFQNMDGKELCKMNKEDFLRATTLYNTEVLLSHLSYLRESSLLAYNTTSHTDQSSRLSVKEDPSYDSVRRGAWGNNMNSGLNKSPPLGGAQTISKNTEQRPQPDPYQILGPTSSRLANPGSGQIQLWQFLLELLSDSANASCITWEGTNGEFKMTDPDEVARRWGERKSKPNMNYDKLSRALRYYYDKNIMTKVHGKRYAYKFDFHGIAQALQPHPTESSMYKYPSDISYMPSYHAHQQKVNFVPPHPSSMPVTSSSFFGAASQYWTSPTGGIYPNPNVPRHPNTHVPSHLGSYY
Kind of assay: nuclear extract protein-binding microarray (nextPBM).

In assay [3] the test system is PU.1 (endogenous, THP-1 nuclear extract) + IRF8 (endogenous, THP-1 nuclear extract). The assay is described as above.

The list shows a part of the results. For part of these data: At the low end of the ranking the order means little. For part of these data: Measured with an extract: partners may take part in the binding.

As for GAGAGGAGGAAGTGAAACTG, the binding signal stood at 4.65 z-score in assay [1], 3.65 z-score in assay [2] and 61.9 z-score in assay [3].
AATAAAAGGAAATGAAAGTA: the binding signal in assay [1] is 1.46 z-score; in assay [2], 2.47 z-score; in assay [3] it was 9.03 z-score.
As for GATAAGAGAAACTGAAAGCT, the results for the binding signal in assay [1], in assay [2] and in assay [3] were -0.311 z-score, 0.0383 z-score and 7.84 z-score, respectively.
With TGAAACAGGAAGTGATACCA, the values for the binding signal in assay [1], in assay [2] and in assay [3] were 6.6 z-score, 5.77 z-score and 29.1 z-score, respectively.
On to AGAAAGAGGATGTGAAACTT, for which the binding signal in assay [1] amounted to 3.54 z-score; in assay [2], 3.31 z-score; in assay [3] it was 44.3 z-score.
On the same counts, the results for GATAAGTGGAACTGAAAGCT are 1.15 z-score, 0.036 z-score and 2.8 z-score.
On the same counts, the results for GATAAGCGGAACTGAAAGCT are 4.14 z-score, 2.01 z-score and 6.62 z-score.
On the same counts, the results for GATTTGAGGAAATGAAACTT are 3.79 z-score, 2.18 z-score and 39.4 z-score.
For GGCTGGAGGAAGTGAAACTG, the binding signal amounted to 3.11 z-score in assay [1], 3.22 z-score in assay [2] and 53.2 z-score in assay [3].
On the same counts, the results for TGAAACAAGAAGTGAAACCT are 1.42 z-score, 0.589 z-score and 26.6 z-score.
For the sequence AGAAGAAGGAAGTGAAAGAA, the binding signal in assay [1] turned out to be 4.5 z-score; in assay [2], 2.51 z-score; in assay [3], 4.08 z-score.
On the same counts, the results for AGAAAAGGGAACTGAAACTC are 5.02 z-score, 2.66 z-score and 40.7 z-score.
Turning to GGAAAGTGGAACTGAAACTT, the binding signal was 1.93 z-score in assay [1], 1.12 z-score in assay [2] and 24.3 z-score in assay [3].
For the sequence GGAATAGGGAAGTGAAACTG, the binding signal came to 6.68 z-score in assay [1], 3.85 z-score in assay [2] and 67.3 z-score in assay [3].
On the same counts, the results for TAAAGGAGGAACTGAATCCA are 3.67 z-score, 0.857 z-score and 1.08 z-score.
On the same counts, the results for CTTGTGAGGAAGTGAAACTT are 3.62 z-score, 2.99 z-score and 48.1 z-score.
As to AAAAACAGGAAATGAAAGTA, the binding signal in assay [1] was 5.43 z-score; in assay [2], 5.1 z-score; in assay [3] it was 30 z-score.
For GATAAGAGCAACTGAAAGCT, the binding signal is -0.681 z-score in assay [1], -0.398 z-score in assay [2] and -0.773 z-score in assay [3].
On the same counts, the results for TGAGAGGAGAAGTGAAGCCT are 1.17 z-score, 0.22 z-score and 0.0852 z-score.
Take TAAAGGAGGAACTGAGACCA: the values for the binding signal in assay [1], in assay [2] and in assay [3] were 3.13 z-score, 1.02 z-score and 0.698 z-score, respectively.
On the same counts, the results for AAAAAAAGGAACTGAAAGTA are 4.57 z-score, 2.32 z-score and 22.6 z-score.
On the same counts, the results for CCTGAGAGGAAGTGAAACTA are 3.87 z-score, 3.72 z-score and 76.8 z-score.
As to GACGCTGGGAAGTGAAACTA, the figures for the binding signal in assay [1], in assay [2] and in assay [3] were 1.07 z-score, 1.29 z-score and 41.5 z-score, respectively.
On the same counts, the results for AAAAAACGGAACTGAAACTG are 5.85 z-score, 2.85 z-score and 58.3 z-score.
On the same counts, the results for AAAAAAAGGAAATGGAAGTA are 4.49 z-score, 3.01 z-score and 0.924 z-score.
On to TGAGAGGAGAAGTGACACCT, for which the binding signal in assay [1] was 1.27 z-score; in assay [2], 0.274 z-score; in assay [3], 0.697 z-score.
On the same counts, the results for AAAAAAAGAAAATGAAAGTA are 0.124 z-score, -0.0854 z-score and 17.5 z-score.
On the same counts, the results for AAAAAAAGCAAATGAAAGTA are -0.182 z-score, 0.312 z-score and 1.49 z-score.
With TGGCAGAGGAAGTGAAACGA, the binding signal in assay [1] turned out to be 3.1 z-score; in assay [2], 2.98 z-score; in assay [3] it was 4.61 z-score.
For the sequence ACATTTAGGAACTGAAAGCG, the binding signal was 1.22 z-score in assay [1], 1.12 z-score in assay [2] and 2.96 z-score in assay [3].
Regarding GGTCTGAGGAAGTGAAACTT, the binding signal came to 3.29 z-score in assay [1], 2.91 z-score in assay [2] and 43.1 z-score in assay [3].
Consider TAAAGGAGGAACTGAAACCA, for which the results for the binding signal in assay [1], in assay [2] and in assay [3] were 3.43 z-score, 2.52 z-score and 37.6 z-score, respectively.
Take TGAAACAGGAAGTGGAACCA: the binding signal in assay [1] turned out to be 6.08 z-score; in assay [2], 5.26 z-score; in assay [3], 3.76 z-score.
Turning to TGAGGGGAGAAGTGAAACCT, the binding signal is 1.11 z-score in assay [1], 0.143 z-score in assay [2] and 29.2 z-score in assay [3].
With TGGCAGAGGAAGTTAAACTA, the values for the binding signal in assay [1], in assay [2] and in assay [3] were 3.71 z-score, 2.55 z-score and -0.349 z-score, respectively.
In the case of GGTGACAGGAAGTGAAACTG, the binding signal stood at 3.24 z-score in assay [1], 5.25 z-score in assay [2] and 47.4 z-score in assay [3].
On the same counts, the results for TAGGAGAGGAAGTGAAAGCC are 4 z-score, 2.95 z-score and 5.22 z-score.
In the case of TAAAGGAGGAACTGAAACCG, the binding signal in assay [1] amounted to 3.73 z-score; in assay [2], 2.04 z-score; in assay [3], 33.1 z-score.
On the same counts, the results for TCAGGGAGGAAGTGAAACTG are 3.73 z-score, 3.31 z-score and 65.8 z-score.
Take GATAAGAGGAAGTGAAAGCT: the binding signal in assay [1] stood at 6.94 z-score; in assay [2], 3.87 z-score; in assay [3] it was 20.7 z-score.
On the same counts, the results for CAGGCAGGGAACTGAAACTC are 1.13 z-score, 0.409 z-score and 8.15 z-score.
On the same counts, the results for AAAAAAAGGAAATGAAAGTC are 3.65 z-score, 2.57 z-score and 7.38 z-score.
On the same counts, the results for CAGCCAGGGAAGTGAAAGCA are 0.79 z-score, 0.812 z-score and 5.7 z-score.
GATAAGAGGAACTGAAAGCT: the binding signal was determined as 4.58 z-score in assay [1], 2 z-score in assay [2] and 6.11 z-score in assay [3].
As for TAAAAGAGGAAGAGAAACTA, the binding signal in assay [1] came out at 5.29 z-score; in assay [2], 2.83 z-score; in assay [3], 22 z-score.
On the same counts, the results for CTGGCAGGGAACTGAAAATC are 0.701 z-score, -0.0736 z-score and -0.598 z-score.
Turning to TGTGAAAGGAAGTGAAACTG, the binding signal turned out to be 1.87 z-score in assay [1], 2.78 z-score in assay [2] and 40.9 z-score in assay [3].
On the same counts, the results for TGAAACAGGAAGTGAAACCC are 6.63 z-score, 5.88 z-score and 61.3 z-score.
With CTGGCAGGGAACTGAATCTC, the binding signal in assay [1] is 0.774 z-score; in assay [2], 0.0624 z-score; in assay [3] it was -0.775 z-score.
As for CCAAACAGGAACTGAAAGTC, the binding signal in assay [1] came out at 3.17 z-score; in assay [2], 2.42 z-score; in assay [3] it was 8.67 z-score.
In the case of TAAAGGAGGAACTGTAACCA, the binding signal in assay [1] is 3.12 z-score; in assay [2], 0.886 z-score; in assay [3], -0.391 z-score.
As for GAAAAGAGGAAATGAAACTA, the binding signal in assay [1] was determined as 6.31 z-score; in assay [2], 4.07 z-score; in assay [3], 67.1 z-score.
For the sequence CTGCCAGGGAAGTGAACGCA, the figures for the binding signal in assay [1], in assay [2] and in assay [3] were 0.787 z-score, 0.637 z-score and 0.853 z-score, respectively.
On the same counts, the results for AAAAAAAGGAAATGAAAGGA are 3.51 z-score, 2.24 z-score and 0.188 z-score.
On the same counts, the results for CAAAGAAGGAAGTGAAACTG are 4.74 z-score, 2.99 z-score and 68.6 z-score.
With CGCAAGGGGAACTGAAACTC, the binding signal was determined as 2.4 z-score in assay [1], 1.53 z-score in assay [2] and 20.3 z-score in assay [3].
On the same counts, the results for ATTTCTGGGAAGTGAAACTA are 1.93 z-score, 1.95 z-score and 52.5 z-score.
On the same counts, the results for CTGACAGGGAACTGAAACTC are 1.1 z-score, 0.393 z-score and 12.6 z-score.
On the same counts, the results for TGAAAAAGGAAGTGAAACCA are 5.02 z-score, 3.74 z-score and 63.8 z-score.
Take GATAAGAGGAACTGAAACCT: the binding signal in assay [1] was determined as 4.64 z-score; in assay [2], 2.61 z-score; in assay [3], 33.6 z-score.

The values above are taken from article PMC6451091.
